B1: TPR 5TU (parent)
chain: GGAUCUUCUCGAUCUAACAAAAAAGACAAAUCUGCCACAAAGCUUGAGAGCAUCUUCGGAUGCAGAGGCGGCAGCCUUCGGUGGCGCGAUAGCGCCAACGUUCUCAACUAUGACACGCAAAACGCGUGCUCCGUUGAAUGGAGUUUAUCAUG

Variants at the background level are over-represented here.

The variants in this series derive from B1. The series can be described thus: polymerase ribozyme fitness, log enrichment relative to wild type (log ratio); higher = more active; in vitro selection for triplet polymerase activity. Put shortly: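 For each subunit of a heterodimeric triplet polymerase ribozyme, a mutant library was built by PCR and transcribed, then taken through a single in vitro selection round in triplicate. Selection involved annealing to a biotinylated primer, the partner subunit and triplets, incubation frozen at −7 °C, gel excision of extended constructs, capture on streptavidin beads and RT-PCR. Genotypes were retained after Illumina sequencing of inputs and outputs only with ≥10 input reads and ≥1 read in each output. Fitness is defined as the logarithm of a genotype's enrichment relative to wild-type enrichment, using inverse-variance-weighted averages across replicates, with the logarithm taken to base 2.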
With A47G C87A G126A, the “polymerase ribozyme fitness (log ratio)” value was not above -4.2.
Consider U44A A64U C96G, for which the “polymerase ribozyme fitness (log ratio)” value was not above -4.2.
Then A47C G59A C72U G81C A89G G128C U134C, with not above -4.2; and U44A C76U, with -4.19.
Then U44A C108U, with not above -4.2; and A47C A60G C93A C95A C96U, with not above -4.2; and U45A U61A U82A, with not above -4.2.
In the case of A47C U134G G136A, the “polymerase ribozyme fitness (log ratio)” value was -0.632.
Consider A47C C85U, for which the “polymerase ribozyme fitness (log ratio)” value is -1.58.
Regarding U44A C75G C96U, the “polymerase ribozyme fitness (log ratio)” value is -4.08.
For the variant G46C G50U U61G A91G C99U C105A A107U C125A, the “polymerase ribozyme fitness (log ratio)” value was not above -4.2.
For the variant G46U A66G C75G C93G, the “polymerase ribozyme fitness (log ratio)” value is not above -4.2.
For the variant G46C G50C A89G A107C G152C, the “polymerase ribozyme fitness (log ratio)” value was not above -4.2.
In the case of U44A G71C C93G A122U, the “polymerase ribozyme fitness (log ratio)” value is not above -4.2.
Take U45A A115C: the “polymerase ribozyme fitness (log ratio)” value was not above -4.2.
Turning to A47G A52C G88U A142U, the “polymerase ribozyme fitness (log ratio)” value was not above -4.2.
Next, U44C G59A A91U: -4; G46A C85A A150C: not above -4.2.
Turning to U44A A66G A89C C105U U130G G136U A138C, the “polymerase ribozyme fitness (log ratio)” value is not above -4.2.
As for U44A C95A A97U C132A U139G U144C, the “polymerase ribozyme fitness (log ratio)” value is not above -4.2.
Then U45A G83A C87G G140C, with not above -4.2.
For A47C A52C C54A U104A, the “polymerase ribozyme fitness (log ratio)” value was not above -4.2.
G46C A47C G62C G65A C93A A97U C149A: the “polymerase ribozyme fitness (log ratio)” value is not above -4.2.
For U45A C96A, the “polymerase ribozyme fitness (log ratio)” value is -2.56.
Then U45G G46U A47C G88C G133A, with not above -4.2; and G46A C85A G136U G140U A142G, with not above -4.2; and U45A U55G U56G C87U G92C, with -3.98.
Take G46A G58C C87A U101G A121C U127A: the “polymerase ribozyme fitness (log ratio)” value is not above -4.2.
Next, U45A A49C C87A: not above -4.2; G46U C87A: not above -4.2; A47G G84C C99G G100U C103U: not above -4.2.
In the case of U44A G80A A121U U144A, the “polymerase ribozyme fitness (log ratio)” value was not above -4.2.
In the case of U44A A49C G68U G71U G86C C118U C125G, the “polymerase ribozyme fitness (log ratio)” value is not above -4.2.
Then A47G A52U C72U C85A U135C G141C, with not above -4.2.
On to A47U A52U C93A C125G U135C, for which the “polymerase ribozyme fitness (log ratio)” value is not above -4.2.
With U44A U45A G58A C79U C87A C95A U139A G143U G152A, the “polymerase ribozyme fitness (log ratio)” value is not above -4.2.
As for U44A C96A A106G C125A U127G G136U, the “polymerase ribozyme fitness (log ratio)” value is not above -4.2.
Next, G46C C96A C123G: -1.48.
G46C C75U C105U: the “polymerase ribozyme fitness (log ratio)” value was not above -4.2.
For the variant A47U A52U C96U A120U G141C, the “polymerase ribozyme fitness (log ratio)” value is not above -4.2.
Regarding A47C A60G U61G C69U C96G, the “polymerase ribozyme fitness (log ratio)” value was not above -4.2.
Consider A47G A91G A97G G112C, for which the “polymerase ribozyme fitness (log ratio)” value was not above -4.2.
Turning to A47C C85A C96U A97U, the “polymerase ribozyme fitness (log ratio)” value is not above -4.2.
Consider A47C U56G A60C G94C G100A U151A, for which the “polymerase ribozyme fitness (log ratio)” value is not above -4.2.
Regarding U44A G67C A121G, the “polymerase ribozyme fitness (log ratio)” value was not above -4.2.
With G46A G86U U90G C93G U104A A106G U144A, the “polymerase ribozyme fitness (log ratio)” value was not above -4.2.
On to G46A C57G A73G G84A G128C C149U, for which the “polymerase ribozyme fitness (log ratio)” value is not above -4.2.
Turning to G46C U55A C69G U82A C85G C108U, the “polymerase ribozyme fitness (log ratio)” value was not above -4.2.
G46C U61G U78A C93A: the “polymerase ribozyme fitness (log ratio)” value is not above -4.2.
On to A47G C87A U109G C116A, for which the “polymerase ribozyme fitness (log ratio)” value was not above -4.2.
Take A47C G50C A91U G140A: the “polymerase ribozyme fitness (log ratio)” value was not above -4.2.
For U45A U77G G83C U146A, the “polymerase ribozyme fitness (log ratio)” value was not above -4.2.
Turning to A47C U78G, the “polymerase ribozyme fitness (log ratio)” value was not above -4.2.
As for A47G A52U C87U C99A C103G, the “polymerase ribozyme fitness (log ratio)” value is not above -4.2.
U45C C114G G141C: the “polymerase ribozyme fitness (log ratio)” value is not above -4.2.
Turning to G46A G59A A106G A110U C129U G133C, the “polymerase ribozyme fitness (log ratio)” value is not above -4.2.
For A47G C54G, the “polymerase ribozyme fitness (log ratio)” value is -0.785.
Consider U44A A52G G68C G83C G126C U145C, for which the “polymerase ribozyme fitness (log ratio)” value was not above -4.2.
Next, A47G G71C G81A C85U A121C A142U: not above -4.2; G46A A49G A60G C85A C93U C103U C149G: not above -4.2; A47G G48A G50U C76U U82G C116G U148G: not above -4.2.
For U44G A52G U55A C85G U135C A147U, the “polymerase ribozyme fitness (log ratio)” value was not above -4.2.
Consider A47U A64U G124C A138C, for which the “polymerase ribozyme fitness (log ratio)” value is not above -4.2.
Next, U45A C75U U77G: not above -4.2; A47C G48U C85U A106G: not above -4.2; U45G A110G C118U G124A: not above -4.2.
In the case of A47C G80C U111G C123A, the “polymerase ribozyme fitness (log ratio)” value was not above -4.2.
For G46U C85G A110C A137U U151A, the “polymerase ribozyme fitness (log ratio)” value is not above -4.2.
On to G46C C54U G65U C93A A98G G117U G141C, for which the “polymerase ribozyme fitness (log ratio)” value is not above -4.2.
With U45A G92U U101G G136A, the “polymerase ribozyme fitness (log ratio)” value is not above -4.2.
Next, U44C C96U C103G A115C: -4.19.
In the case of A47C U127C, the “polymerase ribozyme fitness (log ratio)” value was -1.6.
U44A C72U C76A C85A C93U U127G G133A U151G: the “polymerase ribozyme fitness (log ratio)” value was not above -4.2.
Turning to U44G U55A G58C G140C, the “polymerase ribozyme fitness (log ratio)” value was not above -4.2.
Then U45G C85G, with -3.44; and U45A C69A C95U C99G G112U C114U A147U, with not above -4.2; and G46C G74A U77C C93U, with not above -4.2.
On to U45G A49U A60U C85G C103U C116U A121U, for which the “polymerase ribozyme fitness (log ratio)” value was not above -4.2.
Turning to G46U A47C G71C A98U C105G, the “polymerase ribozyme fitness (log ratio)” value is not above -4.2.
Turning to U44A G92U C96A A115C U148G, the “polymerase ribozyme fitness (log ratio)” value was not above -4.2.
Next, U45C G62C A66C U82C C132A G140C: not above -4.2; U45A C96G A113C: not above -4.2.
Take G46A C103G A122C U146A: the “polymerase ribozyme fitness (log ratio)” value is not above -4.2.
In the case of G46A G81A G136A U146A, the “polymerase ribozyme fitness (log ratio)” value was 0.373.

The record behind these values is the RNAGym collection of RNA variant scans (doi:10.1073/pnas.2313332121).
